Results from the supplement of paper PMC8728848.
The list shows a part of the results.

What was measured:
Experiment in all cases: glycan array binding signal (z-score within array); higher = stronger binding
Details in all cases: glycan notation: IUPAC condensed, linker removed
[1] = target: Neu5Ac(a2-3)Gal(b1-3)GlcNAc(b1-2)Man(a1-3)[Neu5Ac(a2-3)Gal(b1-3)GlcNAc(b1-2)Man(a1-6)]Man(b1-4)GlcNAc(b1-4)GlcNAc
Method in brief: (§1)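 The binding signal is a Z-score computed within each array and averaged over linkers. Arrays of the same protein sequence at different concentrations or buffers were also averaged together. Data originate from 3228 arrays in the Consortium for Functional Glycomics database, kept only where the protein sequence was available.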

[2] = target: Neu5Ac(a2-3)Gal(b1-3)GlcNAc(b1-3)Gal(b1-3)GlcNAc
Method in brief: as §1

[3] = target: Neu5Ac(a2-3)Gal(b1-3)GlcNAc(b1-3)Gal(b1-4)GlcNAc
Method in brief: as §1

[4] = target: Neu5Ac(a2-3)Gal(b1-3)GlcNAc(b1-3)GalNAc
Method in brief: as §1

[5] = target: Neu5Ac(a2-3)Gal(b1-3)GlcNAc(b1-4)Gal(b1-4)Glc
Method in brief: as §1

[6] = target: Neu5Ac(a2-3)Gal(b1-3)GlcNAc(b1-6)GalNAc
Method in brief: as §1

[7] = target: Neu5Ac(a2-3)Gal(b1-3)GlcNAc6S
Method in brief: as §1

[8] = target: Neu5Ac(a2-3)Gal(b1-3)[Fuc(a1-4)]GlcNAc
Method in brief: as §1

[9] = target: Neu5Ac(a2-3)Gal(b1-3)[Fuc(a1-4)]GlcNAc(b1-3)Gal(b1-3)[Fuc(a1-4)]GlcNAc
Method in brief: as §1

[10] = target: Neu5Ac(a2-3)Gal(b1-3)[Fuc(a1-4)]GlcNAc(b1-3)Gal(b1-4)[Fuc(a1-3)]GlcNAc
Method in brief: as §1

[11] = target: Neu5Ac(a2-3)Gal(b1-3)[GlcNAc(b1-6)]GalNAc
Method in brief: as §1

[12] = target: Neu5Ac(a2-3)Gal(b1-3)[Neu5Ac(a2-3)Gal(b1-4)]GlcNAc
Method in brief: as §1

[13] = target: Neu5Ac(a2-3)Gal(b1-3)[Neu5Ac(a2-6)]GalNAc
Method in brief: as §1

[14] = target: Neu5Ac(a2-3)Gal(b1-3)[Neu5Ac(a2-6)]GlcNAc(b1-3)[Fuc(a1-3)[Gal(b1-4)]GlcNAc(b1-6)]Gal(b1-4)Glc
Method in brief: as §1

[15] = target: Neu5Ac(a2-3)Gal(b1-3)]Neu5Ac(a2-3)Gal(b1-4)]GlcNAc
Method in brief: as §1

Neu5Ac(a2-3)Gal(b1-4)Glc = target: Neu5Ac(a2-3)Gal(b1-4)Glc
Method in brief: as §1

[16] = target: Neu5Ac(a2-3)Gal(b1-4)GlcNAc
Method in brief: as §1

[17] = target: Neu5Ac(a2-3)Gal(b1-4)GlcNAc(b1-2)Man
Method in brief: as §1

[18] = target: Neu5Ac(a2-3)Gal(b1-4)GlcNAc(b1-2)Man(a1-3)[GlcNAc(b1-2)Man(b1-4)GlcNAc(b1-2)Man(a1-6)]Man(b1-4)GlcNAc(b1-4)GlcNAc
Method in brief: as §1

[19] = target: Neu5Ac(a2-3)Gal(b1-4)GlcNAc(b1-2)Man(a1-3)[GlcNAc(b1-4)][Neu5Ac(a2-3)Gal(b1-4)GlcNAc(b1-2)Man(a1-6)]Man(b1-4)GlcNAc(b1-4)GlcNAc
Method in brief: as §1

[20] = target: Neu5Ac(a2-3)Gal(b1-4)GlcNAc(b1-2)Man(a1-3)[Neu5Ac(a2-3)Gal(b1-4)GlcNAc(b1-2)Man(a1-6)]Man(b1-4)GlcNAc(b1-4)GlcNAc
Method in brief: as §1

[21] = target: Neu5Ac(a2-3)Gal(b1-4)GlcNAc(b1-2)Man(a1-3)[Neu5Ac(a2-3)Gal(b1-4)GlcNAc(b1-2)Man(a1-6)]Man(b1-4)GlcNAc(b1-4)[Fuc(a1-6)]GlcNAc
Method in brief: as §1

[22] = target: Neu5Ac(a2-3)Gal(b1-4)GlcNAc(b1-2)Man(a1-3)[Neu5Ac(a2-6)Gal(b1-4)GlcNAc(b1-2)Man(a1-6)]Man(b1-4)GlcNAc(b1-4)GlcNAc
Method in brief: as §1

[23] = target: Neu5Ac(a2-3)Gal(b1-4)GlcNAc(b1-2)[Neu5Ac(a2-3)Gal(b1-4)GlcNAc(b1-4)]Man(a1-3)[GlcNAc(b1-4)][Neu5Ac(a2-3)Gal(b1-4)GlcNAc(b1-2)[Neu5Ac(a2-3)Gal(b1-4)GlcNAc(b1-6)]Man(a1-6)]Man(b1-4)GlcNAc(b1-4)GlcNAc
Method in brief: as §1

[24] = target: Neu5Ac(a2-3)Gal(b1-4)GlcNAc(b1-2)[Neu5Ac(a2-3)Gal(b1-4)GlcNAc(b1-4)]Man(a1-3)[GlcNAc(b1-4)][Neu5Ac(a2-3)Gal(b1-4)GlcNAc(b1-4)Man(a1-6)]Man(b1-4)GlcNAc(b1-4)GlcNAc
Method in brief: as §1

[25] = target: Neu5Ac(a2-3)Gal(b1-4)GlcNAc(b1-2)[Neu5Ac(a2-3)Gal(b1-4)GlcNAc(b1-6)]Man(a1-6)[Neu5Ac(a2-3)Gal(b1-4)GlcNAc(b1-2)Man(a1-3)]Man(b1-4)GlcNAc(b1-4)GlcNAc
Method in brief: as §1

[26] = target: Neu5Ac(a2-3)Gal(b1-4)GlcNAc(b1-2)[Neu5Ac(a2-3)Gal(b1-4)GlcNAc(b1-6)]Man(a1-6)[Neu5Ac(a2-3)Gal(b1-4)GlcNAc(b1-2)Man(a1-3)][GlcNAc(b1-4)]Man(b1-4)GlcNAc(b1-4)GlcNAc
Method in brief: as §1

[27] = target: Neu5Ac(a2-3)Gal(b1-4)GlcNAc(b1-3)Gal
Method in brief: as §1

[28] = target: Neu5Ac(a2-3)Gal(b1-4)GlcNAc(b1-3)Gal(b1-3)GlcNAc
Method in brief: as §1

[29] = target: Neu5Ac(a2-3)Gal(b1-4)GlcNAc(b1-3)Gal(b1-4)GlcNAc
Method in brief: as §1

[30] = target: Neu5Ac(a2-3)Gal(b1-4)GlcNAc(b1-3)Gal(b1-4)GlcNAc(b1-2)Man(a1-3)[Neu5Ac(a2-3)Gal(b1-4)GlcNAc(b1-3)Gal(b1-4)GlcNAc(b1-2)Man(a1-6)]Man(b1-4)GlcNAc(b1-4)GlcNAc
Method in brief: as §1

[31] = target: Neu5Ac(a2-3)Gal(b1-4)GlcNAc(b1-3)Gal(b1-4)GlcNAc(b1-3)Gal(b1-4)GlcNAc
Method in brief: as §1

[32] = target: Neu5Ac(a2-3)Gal(b1-4)GlcNAc(b1-3)Gal(b1-4)GlcNAc(b1-3)Gal(b1-4)GlcNAc(b1-2)Man(a1-3)[Neu5Ac(a2-3)Gal(b1-4)GlcNAc(b1-3)Gal(b1-4)GlcNAc(b1-3)Gal(b1-4)GlcNAc(b1-2)Man(a1-6)]GalNAc
Method in brief: as §1

[33] = target: Neu5Ac(a2-3)Gal(b1-4)GlcNAc(b1-3)Gal(b1-4)GlcNAc(b1-3)GalNAc
Method in brief: as §1

[34] = target: Neu5Ac(a2-3)Gal(b1-4)GlcNAc(b1-3)Gal(b1-4)GlcNAc(b1-3)[Neu5Ac(a2-3)Gal(b1-4)GlcNAc(b1-3)Gal(b1-4)GlcNAc(b1-6)]GalNAc
Method in brief: as §1

[35] = target: Neu5Ac(a2-3)Gal(b1-4)GlcNAc(b1-3)Gal(b1-4)GlcNAc(b1-6)[Gal(b1-3)]GalNAc
Method in brief: as §1

[36] = target: Neu5Ac(a2-3)Gal(b1-4)GlcNAc(b1-3)Gal(b1-4)[Fuc(a1-3)]GlcNAc
Method in brief: as §1

[37] = target: Neu5Ac(a2-3)Gal(b1-4)GlcNAc(b1-3)GalNAc
Method in brief: as §1

B1: Gal 9 (Homo sapiens), O00182 (protein)
chain: MAFSGSQAPYLSPAVPFSGTIQGGLQDGLQITVNGTVLSSSGTRFAVNFQTGFSGNDIAFHFNPRFEDGGYVVCNTRQNGSWGPEERKTHMPFQKGMPFDLCFLVQSSDFKVMVNGILFVQYFHRVPFHRVDTISVNGSVQLSYISFQNPRTVPVQPAFSTVPFSQPVCFPPRPRGRRQKPPGVWPANPAPITQTVIHTVQSAPGQMFSTPAIPPMMYPHPAYPMPFITTILGGLYPSKSILLSGTVLPSAQRFHINLCSGNHIAFHLNPRFDENAVVRNTQIDNSWGSEERSLPRKMPFVRGQSFSVWILCEAHCLKVAVDGQHLFEYYHRLRNLPTINRLEVGGDIQLTHVQT
With B1 the “glycan array binding signal (z-score)” value [1] was -0.338, the “glycan array binding signal (z-score)” value [2] was 0.968 and the “glycan array binding signal (z-score)” value [3] was 0.431. The “glycan array binding signal (z-score)” value [4] was -0.316, the “glycan array binding signal (z-score)” value [5] was -0.285 and the “glycan array binding signal (z-score)” value [6] was -0.246. The “glycan array binding signal (z-score)” value [7] was -0.314, the “glycan array binding signal (z-score)” value [8] was -0.313 and the “glycan array binding signal (z-score)” value [9] was -0.311. The “glycan array binding signal (z-score)” value [10] was -0.326, the “glycan array binding signal (z-score)” value [11] was -0.308 and the “glycan array binding signal (z-score)” value [12] was -0.332. For the same binder, the “glycan array binding signal (z-score)” value [13] was -0.31, the “glycan array binding signal (z-score)” value [14] was -0.298 and the “glycan array binding signal (z-score)” value [15] was -0.318. The “glycan array binding signal (z-score)” value (Neu5Ac(a2-3)Gal(b1-4)Glc) was -0.311, the “glycan array binding signal (z-score)” value [16] was -0.28 and the “glycan array binding signal (z-score)” value [17] was -0.251. The “glycan array binding signal (z-score)” value [18] was 1.19, the “glycan array binding signal (z-score)” value [19] was -0.309 and the “glycan array binding signal (z-score)” value [20] was -0.305. The “glycan array binding signal (z-score)” value [21] was -0.256, the “glycan array binding signal (z-score)” value [22] was -0.071 and the “glycan array binding signal (z-score)” value [23] was -0.294. The “glycan array binding signal (z-score)” value [24] was -0.282, the “glycan array binding signal (z-score)” value [25] was -0.246 and the “glycan array binding signal (z-score)” value [26] was -0.288. For the same binder, the “glycan array binding signal (z-score)” value [27] was -0.239, the “glycan array binding signal (z-score)” value [28] was -0.234 and the “glycan array binding signal (z-score)” value [29] was -0.14. The “glycan array binding signal (z-score)” value [30] was -0.236, the “glycan array binding signal (z-score)” value [31] was 0.554 and the “glycan array binding signal (z-score)” value [32] was -0.247. For the same binder, the “glycan array binding signal (z-score)” value [33] was -0.295, the “glycan array binding signal (z-score)” value [34] was -0.268 and the “glycan array binding signal (z-score)” value [35] was -0.289. For the same binder, the “glycan array binding signal (z-score)” value [36] was -0.302 and the “glycan array binding signal (z-score)” value [37] was -0.265.
